Source: PubChem BioAssay AID1345083 (National Center for Advancing Translational Sciences (NCATS), 2018)
In all, about 94,000 compounds went through this assay and about 6,200 (6.6%) were called active. This list was built around the results that the source calls inconclusive (neither active nor inactive); the mix of calls is not that of the screen. The call rests on the fitted dose curve; in most records, active means well fitted inhibition curve with a large enough effect; inconclusive means small, poorly fitted or top-dose-only effect; inactive means flat fitted curve, though single readings scatter. Potencies of inconclusive entries are doubtful fits and often do not repeat.

Assay: Cytotoxic Profiling in HEK 293 Cell Line of Diverse Libraries Using Quantitative High-Throughput Screening; further: nearly all actives have a fitted effect of over 60% in size
Conditions: HEK 293 viability, ATP luminescence (CellTiter-Glo), 48-72 h; series mostly up to 115 µM
How it was run: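 HEK 293 seeded at 250 cells/well receive compound via pintool. After 48 or 72 hr at 37 degree Celsius, 5% CO2 and 95% humidity, CellTiter-Glo is dispensed and luminescence read following 10 min at room temperature.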
Potency means the concentration at half of the fitted maximal effect; tags describe the fitted curve by direction and shape.

Row | Structure (SMILES) | Potency
1 | O=C(N1CCC(N[S+](=O)([O-])Cc2ccccc2F)CC1)N1CC2CC(C1)[C@H]1CCCC(=O)N1C2 (stereo partly drawn) | inactive
2 | COc1ccc(CN2C[C@@H](F)[C@@H](OCc3nc4ccccc4o3)C2)cc1 | inconclusive: 89.1 µM [inhibitor, partial curve]
3 | CC(=O)Nc1cccc(C(=O)NCCn2ccn3nc(-c4ccc(C)cc4C)cc3c2=O)c1 | active: 39.8 µM
4 | COc1ccc(-c2cc(CC3(NC4CCN(C(C)=O)CC4)COC3)no2)cc1 | inconclusive: 70.8 µM [inhibitor, partial curve, poor fit]
5 | N#Cc1cccc(CN2CCOC[C@H]2c2ncc(-c3ccc(Cl)cc3)[nH]2)c1 | inconclusive: 79.4 µM [inhibitor, partial curve, poor fit]
6 | Cc1nnc2ccc(N3CCCC(NC(=O)NC(C)C)C3)nn12 (stereo not drawn) | inactive
7 | Cc1ccccc1CN1CCN2C(=O)N(Cc3cccnc3)C[C@H]2C1 | inconclusive: 70.8 µM [inhibitor, partial curve]
8 | COc1ccc(OCc2nc3c(n2Cc2ccccc2)C(=O)N(Cc2ccccc2C#N)CCN3)cc1OC | inconclusive: 50.1 µM [inhibitor, partial curve, poor fit]
9 | CCCN(CC1CCOC1)C(=O)NCc1ccc(F)cc1 (stereo not drawn) | inactive
10 | COc1ccccc1C(=O)N1CCN(c2cc(C(F)(F)F)nc(C)n2)CC1 | inconclusive: 89.1 µM [inhibitor, single point]
11 | O=C1CC(c2ccccc2)N(Cc2ccncc2)CCCN(S(=O)(=O)c2cccc(F)c2)CCN1 (stereo not drawn) | active: 44.7 µM
12 | COc1cc(NC(=O)c2cc3n(n2)CC(c2ccc(Cl)cc2)OC3)cc(OC)c1OC (stereo not drawn) | active: 44.7 µM
13 | Cc1nn2c(c1-c1ccccc1Oc1ccccc1)N(C(=O)c1ccc(F)cc1)CCC2 | inconclusive: 56.2 µM [inhibitor, partial curve, poor fit]
14 | COc1ccccc1CC(=O)NCc1nnc2cc(-c3nc(C4CC4)no3)ccn12 | inactive
15 | O=C(Cn1ccn2nc(-c3ccccc3)c(CO)c2c1=O)Nc1ccccc1C(F)(F)F | inconclusive: 31.6 µM [inhibitor, single point]
16 | Cc1ccc(-c2nc(C(=O)N3CCN(c4ccccc4C)CC3)no2)cc1 | inconclusive: 89.1 µM [inhibitor, single point]
17 | CN(C)C(=O)CCN1CCOC(CC(c2ccccc2)c2ccccc2)C1 (stereo not drawn) | inactive
18 | O=C(Cc1c[nH]c2ncc(-c3cccnc3)cc12)NCc1cccc(F)c1 | inconclusive: 89.1 µM [inhibitor, partial curve]
